Experimental findings from the RNAGym collection of RNA variant scans (doi:10.7554/elife.90254) are described below.

Read counts are not given, so values of variants with three or more changes are uncertain.

B1: LINE1-mini (parent)
chain: GGCAGAGCUCAACACAGCGUGGCAAAGUGGCUGUGGCUAGACUGCC

Variants of B1 are the subject of this data set. The data set can be described thus: self-cleavage, relative activity (ratio to wild type); higher = more cleavage; in vitro, sequencing; the parent is a self-cleaving ribozyme.
In the case of C8A C10A C13A G17U G33U, the self-cleavage was determined as 0.

Turning to C8A C13A G44A, the self-cleavage is 0.33.

Turning to C8A G19U C46G, the self-cleavage worked out at 0.15.

Take C8G A12C C23U: the self-cleavage is 0.03.

On to C8A U9A G27C, for which the self-cleavage amounted to 0.07.

With C8A C10U A16G A41G, the self-cleavage was determined as 0.05.

In the case of C8A C10U C18U G36A G40U, the self-cleavage was found to be 0.03.

C8A C18U A26U U32C G36A: the self-cleavage worked out at 0.24.

For the variant C8A G22A C23G G29A C31U G44U, the self-cleavage came out at 0.14.

In the case of C8G A11G A12C C15A, the self-cleavage was 0.

For the variant C8A U9G A12C C42U, the self-cleavage was 0.17.

On to C8A G21U G44U, for which the self-cleavage was determined as 0.1.

On to C8A G29C C45G, for which the self-cleavage is 0.01.

In the case of C8A G21U C23A U34G, the self-cleavage is 0.05.

With C8G A12C C18U G44U, the self-cleavage is 0.01.

Consider C8G A12C C13U G22A C37U U38C, for which the self-cleavage came out at 0.01.

For C8A C10U G17U C31G U32G C46A, the self-cleavage was 0.08.

Turning to C8A G22U C23G G35A, the self-cleavage was found to be 0.51.

As to C8A G33U U34C U43G, the self-cleavage stood at 0.04.

Regarding C8A G19U A26U G30C U32A, the self-cleavage worked out at 0.17.

For the variant C8A G19A U20A G33C G36C G40U, the self-cleavage turned out to be 0.04.

Turning to C8A C42G G44U, the self-cleavage was determined as 0.19.

For C8A U34C A39C, the self-cleavage is 0.24.

As for C8A U9G A16U G36U, the self-cleavage is 0.04.

For the variant C8A C23U G30U, the self-cleavage was 0.21.

For C8A G17A G33A C37U, the self-cleavage was determined as 0.1.

Regarding C8A G22U C45U, the self-cleavage is 0.26.

Regarding C8A C10U C13U, the self-cleavage came out at 0.1.

In the case of C8A C10A G21A G27A C42U, the self-cleavage was determined as 0.

In the case of C8A C18G A41C, the self-cleavage was found to be 0.02.

Turning to C8A G19A G36C, the self-cleavage was 0.27.

As to C8A C10A A25U C31U, the self-cleavage is 0.03.

On to C8A C13A G29U U43A, for which the self-cleavage was determined as 0.18.

As to C8A U9C C13A G29C, the self-cleavage stood at 0.08.

As for C8A C23A U43G, the self-cleavage was 0.02.

With C8A G17U A26U G27U, the self-cleavage was determined as 0.26.

Turning to C8A C15G C31A G36C, the self-cleavage amounted to 0.91.

Take C8A G21A A41G: the self-cleavage was 0.32.

In the case of C8A U38C G40U C46G, the self-cleavage was 0.06.

Regarding C8A C10A C13A C23U, the self-cleavage came to 0.03.

As for C8A U9C C18U, the self-cleavage is 0.05.

Turning to C8A G22A G30A G36A, the self-cleavage is 1.35.

In the case of C8A G27C C31A C46U, the self-cleavage worked out at 0.16.

Consider C8A C18A G27U, for which the self-cleavage came out at 0.23.

C8A U9A G19U: the self-cleavage is 0.12.

C8A C15A U32A: the self-cleavage was determined as 0.06.

C8G A11G U32C G44C: the self-cleavage came out at 0.03.

As for C8A G35U C42A, the self-cleavage worked out at 0.31.

For C8A C10U C23A G40U, the self-cleavage was 0.03.

As to C8A U9C C37U C45U, the self-cleavage was determined as 0.12.

In the case of C8A G19A G22A, the self-cleavage stood at 0.25.

C8A G17A G21A G29A G30C G44C: the self-cleavage turned out to be 0.11.

As for C8A U9G C31A U32A, the self-cleavage stood at 0.06.

C8A U9G C23U U28C: the self-cleavage was 0.04.

With C8A G19A U28G, the self-cleavage worked out at 0.3.

On to C8A C10A A25C G33U A41U, for which the self-cleavage came out at 0.02.

Take C8A U34A C37U: the self-cleavage was 0.07.

As to C8A C15U A26G C45U, the self-cleavage amounted to 0.45.

Consider C8A G22U A41U, for which the self-cleavage amounted to 1.24.

C8A G22C A25U: the self-cleavage was determined as 0.4.

Take C8G A12G A16C: the self-cleavage turned out to be 0.02.

Regarding C8A C18G G19A, the self-cleavage worked out at 0.05.

On to C8A C15A G19A C37A, for which the self-cleavage stood at 0.19.

C8A C10G A16C G29U G40C: the self-cleavage turned out to be 0.03.

C8G A11G C18G C42A: the self-cleavage was 0.02.

Take C8A U9C G17A C18G G22U: the self-cleavage is 0.04.

For C8A G35U A39U, the self-cleavage amounted to 0.07.

In the case of C8A C13A A16C, the self-cleavage is 0.43.

For the variant C8A G19U G22C C31U C37U, the self-cleavage came out at 0.04.

As to C8A G22U G27U U38A C45U, the self-cleavage was 0.07.

Consider C8A C13G C15A G19U A25G G33A, for which the self-cleavage came out at 0.29.

Consider C8A G21U C45U, for which the self-cleavage amounted to 0.18.

Consider C8A C10G C13U C18U G21A C31U G35U, for which the self-cleavage was determined as 0.01.

As to C8A G21U G22C C42G, the self-cleavage came out at 0.3.

Take C8A U28C G35A G36A C45U: the self-cleavage is 0.01.

In the case of C8G A12G A24U, the self-cleavage worked out at 0.03.

As to C8A C23U G27U, the self-cleavage amounted to 0.12.

Take C8A C15U A16C: the self-cleavage turned out to be 0.14.

As for C8A G36U A39G, the self-cleavage is 0.06.

For C8A C18A G33C, the self-cleavage was determined as 0.11.

On to C8A C10U U32G, for which the self-cleavage was found to be 0.11.

With C8A G27U G44C, the self-cleavage stood at 0.09.

With C8A G21U U28G C37G, the self-cleavage was 0.07.

In the case of C8A G22U U34A U38G, the self-cleavage was 0.03.

For C8A G29A C31A, the self-cleavage turned out to be 0.12.

Consider C8A U20G G40U, for which the self-cleavage was 0.26.

Regarding C8A C15A C45U, the self-cleavage was 0.42.

With C8A C10G U20G G21U A26C G33C G35A, the self-cleavage came to 0.03.

Turning to C8A G21A A41G G44A, the self-cleavage was found to be 0.11.

In the case of C8G A11G A26G G27U, the self-cleavage amounted to 0.04.

As for C8A U38A C42U, the self-cleavage was 0.22.

Regarding C8A C15U G19U C37G, the self-cleavage worked out at 0.04.

Turning to C8A U28A G30A G44C, the self-cleavage is 0.3.

For the variant C8A G30U G36C, the self-cleavage came to 0.09.

For C8A G21U G33C, the self-cleavage came out at 0.07.

Turning to C8A G17A G21A A25U C46A, the self-cleavage was 0.31.

For the variant C8A U9G G29C G30U, the self-cleavage amounted to 0.05.

For C8A C23A A25C G30A, the self-cleavage turned out to be 0.17.

With C8A C10A A25G, the self-cleavage was 0.14.

Regarding C8A C10A C37A, the self-cleavage amounted to 0.05.

As to C8A C13U G17U C31U A39C A41U, the self-cleavage was determined as 0.07.

C8A C13G A14C: the self-cleavage is 0.64.

For the variant C8A G19U G33U, the self-cleavage amounted to 0.03.

On to C8A C10U A16U, for which the self-cleavage worked out at 0.05.

Regarding C8G A11G U34A, the self-cleavage turned out to be 0.03.

As to C8G A11C C18U C31A G33A, the self-cleavage stood at 0.02.

Take C8A C10U A14C: the self-cleavage was 0.02.

For C8A C23G U28C U34C C42G, the self-cleavage amounted to 0.16.

In the case of C8A C15G A26U, the self-cleavage came out at 0.05.

Consider C8A C37A G44A, for which the self-cleavage was 0.12.

In the case of C8A C10A C31A C46U, the self-cleavage was found to be 0.02.

In the case of C8A G17A C37A, the self-cleavage is 0.33.

Take C8A U20A C46U: the self-cleavage stood at 0.17.

For the variant C8A C15U G29U G35U, the self-cleavage came to 0.21.

As for C8A C10U U20G, the self-cleavage came to 0.05.

As to C8A G19C A25U G29U C46A, the self-cleavage turned out to be 0.29.

As for C8G A11G G30A U34C G35A U38A, the self-cleavage turned out to be 0.

Take C8A C23A C31U: the self-cleavage is 0.35.

In the case of C8A G17A A25G G27A, the self-cleavage was found to be 0.13.

For the variant C8A U9A C23G G30U, the self-cleavage was 0.24.

As for C8A G27U G33U, the self-cleavage came out at 0.24.

C8A C10A C18A: the self-cleavage was 0.04.

As for C8A C23A G35A, the self-cleavage is 0.07.

For C8A U28A G33U, the self-cleavage turned out to be 0.1.

For the variant C8A U20A G21U A25C, the self-cleavage is 0.04.

As for C8A C13U G21A U34A G36U, the self-cleavage was determined as 0.16.

With C8G A11U C46A, the self-cleavage came to 0.02.

On to C8A C15U A24C A39U, for which the self-cleavage came to 0.26.

C8A C15A C23U: the self-cleavage was 0.27.

As to C8A U20C C46G, the self-cleavage stood at 0.18.

With C8A U34C C45U, the self-cleavage was found to be 0.31.

Regarding C8A C10G A26G, the self-cleavage stood at 0.

Consider C8A G21C C37U, for which the self-cleavage was found to be 0.04.

As to C8A C13G C31U, the self-cleavage came to 0.28.

Consider C8A G17C U38G A39U A41U, for which the self-cleavage came to 0.01.

With C8A U28G C37A G40C, the self-cleavage worked out at 0.02.

In the case of C8A G17A G22U, the self-cleavage is 0.17.

Regarding C8A G17U A41C, the self-cleavage worked out at 0.14.

On to C8A U9G G19U, for which the self-cleavage was 0.03.

Take C8A A26U G29U A41G: the self-cleavage worked out at 0.35.

C8A C18G A25C: the self-cleavage amounted to 0.15.

Turning to C8G A12G C37A C42A, the self-cleavage stood at 0.15.

C8A U34C C45A C46U: the self-cleavage was found to be 0.09.

As for C8A U20A G22U G27U, the self-cleavage was determined as 0.21.

In the case of C8A C23G A24G, the self-cleavage came out at 0.22.

For the variant C8A U34G C46U, the self-cleavage is 0.1.

Take C8A U20G G44C C46A: the self-cleavage came out at 0.08.

Regarding C8A G21U C37G A39G G44A, the self-cleavage amounted to 0.05.

On to C8G A11U G22U G33A G35A, for which the self-cleavage amounted to 0.03.

With C8A C15U G21U U28A, the self-cleavage is 0.23.

Turning to C8A C15U G21U U28C, the self-cleavage amounted to 0.26.

With C8A C15A G22A U28C C37U, the self-cleavage amounted to 0.13.

Regarding C8A G27U C37A, the self-cleavage was determined as 0.09.

In the case of C8G A11U G33C G36A U43C, the self-cleavage stood at 0.02.

C8A C18G U43A: the self-cleavage stood at 0.01.

As to C8A G19C G22A, the self-cleavage turned out to be 0.07.

Turning to C8A C13G G33U G40U, the self-cleavage came to 0.63.

As to C8A G19U U20C G21A, the self-cleavage came out at 0.14.

With C8G A12G G17A G19U U20C G22U G40U U43C, the self-cleavage is 0.01.

On to C8A C15A A24U, for which the self-cleavage is 0.11.

As to C8A C13A A16U C23U C42G, the self-cleavage came out at 0.11.

For C8A U9C A12G G36U, the self-cleavage amounted to 0.03.

As to C8A C10U C31G U38A A41C C42U, the self-cleavage worked out at 0.03.

As to C8A G17A C31A G36U, the self-cleavage worked out at 0.15.

Consider C8A C15A U43A, for which the self-cleavage amounted to 0.54.

As for C8A C13A G27U U34G C37A, the self-cleavage turned out to be 0.15.

Turning to C8A C13G G29U A41G, the self-cleavage worked out at 0.3.
